Test results as given in article PMC9911399, “Two distinct binding modes provide the RNA-binding protein RbFox with extraordinary sequence specificity”.
Changes are numbered by the printed parent chain; changes in the protein carry UniProt numbers. This is one part of the list.

T1: RBFOX1 RRM RbFoxmut (Fox-RRM*) (Homo sapiens, UniProt Q9NWB1 109-208, R118D;E147R;N151S;E152T)
T1 sequence: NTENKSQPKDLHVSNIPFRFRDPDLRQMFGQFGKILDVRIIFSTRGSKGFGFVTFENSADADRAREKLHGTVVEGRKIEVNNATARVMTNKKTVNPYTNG

B1: GGUGUGU (DNA:RNA)
RNA: GGGAGACCGGAAUUCAGAUUGUCCGGUGUGUUUAAAUCCCGUCGUAGCCACCA
DNA 1: CAATCTGAATTCCGGTCTCCC
DNA 2: TGGTGGCTACGACGGGATT
B2: GUCGUGA (DNA:RNA)
RNA: B1 RNA with G26U, U27C, U31A
DNA 1: CAATCTGAATTCCGGTCTCCC
DNA 2: TGGTGGCTACGACGGGATT
B3: GGGCUUU (DNA:RNA)
RNA: B1 RNA with U27G, G28C, G30U
DNA 1: CAATCTGAATTCCGGTCTCCC
DNA 2: TGGTGGCTACGACGGGATT
B4: AGGAAAG (DNA:RNA)
RNA: B1 RNA with G25A, U27G, G28A, U29A, G30A, U31G
DNA 1: CAATCTGAATTCCGGTCTCCC
DNA 2: TGGTGGCTACGACGGGATT
B5: AAUUUAG (DNA:RNA)
RNA: B1 RNA with G25A, G26A, G28U, G30A, U31G
DNA 1: CAATCTGAATTCCGGTCTCCC
DNA 2: TGGTGGCTACGACGGGATT
B6: GGCGUCG (DNA:RNA)
RNA: B1 RNA with U27C, G30C, U31G
DNA 1: CAATCTGAATTCCGGTCTCCC
DNA 2: TGGTGGCTACGACGGGATT
B7: GAACCUG (DNA:RNA)
RNA: B1 RNA with G26A, U27A, G28C, U29C, G30U, U31G
DNA 1: CAATCTGAATTCCGGTCTCCC
DNA 2: TGGTGGCTACGACGGGATT
B8: UUCAACU (DNA:RNA)
RNA: B1 RNA with G25U, G26U, U27C, G28A, U29A, G30C
DNA 1: CAATCTGAATTCCGGTCTCCC
DNA 2: TGGTGGCTACGACGGGATT
B9: GUGCCAC (DNA:RNA)
RNA: B1 RNA with G26U, U27G, G28C, U29C, G30A, U31C
DNA 1: CAATCTGAATTCCGGTCTCCC
DNA 2: TGGTGGCTACGACGGGATT
B10: ACACGGA (DNA:RNA)
RNA: B1 RNA with G25A, G26C, U27A, G28C, U29G, U31A
DNA 1: CAATCTGAATTCCGGTCTCCC
DNA 2: TGGTGGCTACGACGGGATT
B11: UCUUUGC (DNA:RNA)
RNA: B1 RNA with G25U, G26C, G28U, U31C
DNA 1: CAATCTGAATTCCGGTCTCCC
DNA 2: TGGTGGCTACGACGGGATT
B12: ACACAUG (DNA:RNA)
RNA: GGGAGACCGGAAUUCAGAUUGUCCACACAUGUUAAAUCCCGUCGUAGCCACCA
DNA 1: CAATCTGAATTCCGGTCTCCC
DNA 2: TGGTGGCTACGACGGGATT
B13: GGGUACU (DNA:RNA)
RNA: B1 RNA with U27G, G28U, U29A, G30C
DNA 1: CAATCTGAATTCCGGTCTCCC
DNA 2: TGGTGGCTACGACGGGATT
B14: CAUUGAG (DNA:RNA)
RNA: B12 RNA with A25C, C26A, A27U, C28U, A29G, U30A
DNA 1: CAATCTGAATTCCGGTCTCCC
DNA 2: TGGTGGCTACGACGGGATT
B15: UAGUCAA (DNA:RNA)
RNA: GGGAGACCGGAAUUCAGAUUGUCCUAGUCAAUUAAAUCCCGUCGUAGCCACCA
DNA 1: CAATCTGAATTCCGGTCTCCC
DNA 2: TGGTGGCTACGACGGGATT
B16: CACAGCU (DNA:RNA)
RNA: B1 RNA with G25C, G26A, U27C, G28A, U29G, G30C
DNA 1: CAATCTGAATTCCGGTCTCCC
DNA 2: TGGTGGCTACGACGGGATT
B17: UUAAUAA (DNA:RNA)
RNA: B15 RNA with A26U, G27A, U28A, C29U
DNA 1: CAATCTGAATTCCGGTCTCCC
DNA 2: TGGTGGCTACGACGGGATT
B18: AAUGUUA (DNA:RNA)
RNA: B1 RNA with G25A, G26A, G30U, U31A
DNA 1: CAATCTGAATTCCGGTCTCCC
DNA 2: TGGTGGCTACGACGGGATT
B19: CCGUCAA (DNA:RNA)
RNA: B15 RNA with U25C, A26C
DNA 1: CAATCTGAATTCCGGTCTCCC
DNA 2: TGGTGGCTACGACGGGATT
B20: UAGUAGG (DNA:RNA)
RNA: B15 RNA with C29A, A30G, A31G
DNA 1: CAATCTGAATTCCGGTCTCCC
DNA 2: TGGTGGCTACGACGGGATT
B21: UGACUCG (DNA:RNA)
RNA: B12 RNA with A25U, C26G, A29U, U30C
DNA 1: CAATCTGAATTCCGGTCTCCC
DNA 2: TGGTGGCTACGACGGGATT
B22: CUGGACU (DNA:RNA)
RNA: B1 RNA with G25C, G26U, U27G, U29A, G30C
DNA 1: CAATCTGAATTCCGGTCTCCC
DNA 2: TGGTGGCTACGACGGGATT
B23: CCGUGAC (DNA:RNA)
RNA: B15 RNA with U25C, A26C, C29G, A31C
DNA 1: CAATCTGAATTCCGGTCTCCC
DNA 2: TGGTGGCTACGACGGGATT
B24: UGCCACG (DNA:RNA)
RNA: B12 RNA with A25U, C26G, A27C, U30C
DNA 1: CAATCTGAATTCCGGTCTCCC
DNA 2: TGGTGGCTACGACGGGATT
B25: GAGCUUC (DNA:RNA)
RNA: B12 RNA with A25G, C26A, A27G, A29U, G31C
DNA 1: CAATCTGAATTCCGGTCTCCC
DNA 2: TGGTGGCTACGACGGGATT
B26: AUCCUAG (DNA:RNA)
RNA: B12 RNA with C26U, A27C, A29U, U30A
DNA 1: CAATCTGAATTCCGGTCTCCC
DNA 2: TGGTGGCTACGACGGGATT
B27: UCGUGCA (DNA:RNA)
RNA: B15 RNA with A26C, C29G, A30C
DNA 1: CAATCTGAATTCCGGTCTCCC
DNA 2: TGGTGGCTACGACGGGATT
B28: AUUGCUU (DNA:RNA)
RNA: B1 RNA with G25A, G26U, U29C, G30U
DNA 1: CAATCTGAATTCCGGTCTCCC
DNA 2: TGGTGGCTACGACGGGATT
B29: AGACGGA (DNA:RNA)
RNA: B12 RNA with C26G, A29G, U30G, G31A
DNA 1: CAATCTGAATTCCGGTCTCCC
DNA 2: TGGTGGCTACGACGGGATT
B30: ACGUGGG (DNA:RNA)
RNA: B12 RNA with A27G, C28U, A29G, U30G
DNA 1: CAATCTGAATTCCGGTCTCCC
DNA 2: TGGTGGCTACGACGGGATT
B31: AUCCUAA (DNA:RNA)
RNA: B12 RNA with C26U, A27C, A29U, U30A, G31A
DNA 1: CAATCTGAATTCCGGTCTCCC
DNA 2: TGGTGGCTACGACGGGATT

What follows are binders tested against T1, RBFOX1 RRM RbFoxmut (Fox-RRM*) (assay: EMSA; HiTS-Eq, 1 nM pool, 10 min; buffer printed only for the single-RNA assays: 10 mM Tris pH 7.5, 150 mM NaCl, 3.4 mM EDTA, 0.001% NP-40, 30 C). Settings: tags: His6 N-terminal (pET28a); label: 5' 32P.
Procedure, shortened: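 Relative association constants, normalised to the cognate motif, were derived by comparing read counts of each RNA species with those of the control reaction. The RNA sequenced was the free fraction, separated by 8% native PAGE after a 10 min equilibration in 50 µL of 1 nM 5′-radiolabelled RNA (7 randomized nucleotides) with increasing concentrations of purified wild-type or mutant RbFox RRM.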

Compared with B1, B2 is lower in binding signal: 0.232 KA relative to UGCAUGU for the first, 0.126 KA relative to UGCAUGU for the second.

Compared with B3, B4 is higher in binding signal: 0.0637 KA relative to UGCAUGU for the first, 0.151 KA relative to UGCAUGU for the second.

First: B5
Second: B6
The binding signal of the first is lower: 0.107 KA relative to UGCAUGU for the first, 0.203 KA relative to UGCAUGU for the second.

First: B7
Second: B8
The binding signal of the first is higher: 0.0895 KA relative to UGCAUGU for the first, 0.0572 KA relative to UGCAUGU for the second.

First: B9
Second: B10
The binding signal of the first is lower: 0.0759 KA relative to UGCAUGU for the first, 0.0828 KA relative to UGCAUGU for the second.

First: B11
Second: B12
The binding signal of the first is higher: 0.115 KA relative to UGCAUGU for the first, 0.113 KA relative to UGCAUGU for the second.

First: B13
Second: B14
The binding signal of the first is lower: 0.0825 KA relative to UGCAUGU for the first, 0.12 KA relative to UGCAUGU for the second.

Compared with B15, B16 is higher in binding signal: 0.0801 KA relative to UGCAUGU for the first, 0.084 KA relative to UGCAUGU for the second.

First: B17
Second: B18
The binding signal of the first is lower: 0.103 KA relative to UGCAUGU for the first, 0.14 KA relative to UGCAUGU for the second.

Compared with B19, B20 is higher in binding signal: 0.0767 KA relative to UGCAUGU for the first, 0.11 KA relative to UGCAUGU for the second.

Compared with B21, B22 is lower in binding signal: 0.172 KA relative to UGCAUGU for the first, 0.0491 KA relative to UGCAUGU for the second.

First: B23
Second: B24
The binding signal of the first is lower: 0.0977 KA relative to UGCAUGU for the first, 0.158 KA relative to UGCAUGU for the second.

First: B25
Second: B26
The binding signal of the first is lower: 0.0856 KA relative to UGCAUGU for the first, 0.12 KA relative to UGCAUGU for the second.

Compared with B27, B28 is lower in binding signal: 0.181 KA relative to UGCAUGU for the first, 0.137 KA relative to UGCAUGU for the second.

Compared with B29, B30 is higher in binding signal: 0.0873 KA relative to UGCAUGU for the first, 0.0961 KA relative to UGCAUGU for the second.

For B31, the binding signal was 0.107 KA relative to UGCAUGU.
